Our source for the enrichment score values is the supplement of paper PMC10369915.

This is one part of the list. Cut-off read from the data, not from the text of the source: active = 3.2 or more and inactive = the rest. The signal is at background level for most entries.
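Note: displayed peptides selected on beads carrying the immobilized SH2 domain, with library peptides lacking any tyrosine serving as negative controls.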

The target in one test is SHP2 C-SH2 domain E139D. In words: enrichment score (SH2-bound / input frequency) (ratio); bacterial display of known human phosphotyrosine sites (pTyr-Var adds point mutants) read by sequencing; higher = stronger binding; tyrosines were phosphorylated by kinases first. To be noted: peptide library: pTyr-Var.
Take THEVRYVSAGQ [SLCO4A1_Y77]: the enrichment score was inactive: 0.685.

In the case of FSCLPYGRLAF [SLC52A2_Y305_YF], the enrichment score was inactive: 1.07.

Turning to KPLMPSMRFSR [SMARCE1_Y73_Y73S_YF], the enrichment score is inactive: 0.366.

Consider FSCLPCGRLAF [SLC52A2_Y305_Y305C_YF], for which the enrichment score was active: 3.51.

In the case of NKEAIYSGYIR [SMCHD1_Y283], the enrichment score is inactive: 0.823.

FSCLPCGRLAY [SLC52A2_Y305_Y305C]: the enrichment score is active: 3.24.

As for VIIVLYFSLWK [SLC6A2_Y249_V245I], the enrichment score was inactive: 1.03.

KPLMPYMRFSR [SMARCE1_Y73_YF]: the enrichment score is inactive: 0.246.

FSCLPYRRLAY [SLC52A2_Y305_G306R]: the enrichment score was inactive: 0.227.

As for RPSELYFSKIG [SMG1_Y2253_YF], the enrichment score is inactive: 1.18.

With DFKIIYIVPMR [SNRNP200_Y540_A542V], the enrichment score is active: 3.37.

With KSEMSYIDGEK [SORBS1_Y485], the enrichment score is inactive: 0.619.

For RPSELYFSKIS [SMG1_Y2253_G2258S_YF], the enrichment score was inactive: 1.56.

Take KSSDVYVSYDY [SORL1_Y136]: the enrichment score was inactive: 0.834.

Turning to LTFHMYADPNI [SOS1_Y618_F623I_YF], the enrichment score was inactive: 1.22.

For KELSNYKHLTL [SLIT2_Y776], the enrichment score was inactive: 0.498.

Turning to QMRLKYSQSDL [SMC1A_Y714], the enrichment score was inactive: 0.847.

For the molecule DMLTLYVNTAA [SMCHD1_Y403_Q400L], the enrichment score is inactive: 1.91.

The target of another test is SHP2 C-SH2 domain wild-type. Described as above. To be noted: peptide library: pTyr-Var.
Consider THEVRYVSAGQ [SLCO4A1_Y77], for which the enrichment score is inactive: 0.653.

As to FSCLPYGRLAF [SLC52A2_Y305_YF], the enrichment score was inactive: 0.801.

For KPLMPSMRFSR [SMARCE1_Y73_Y73S_YF], the enrichment score was inactive: 0.207.

In the case of FSCLPCGRLAF [SLC52A2_Y305_Y305C_YF], the enrichment score was active: 3.33.

For NKEAIYSGYIR [SMCHD1_Y283], the enrichment score was inactive: 0.708.

With FSCLPCGRLAY [SLC52A2_Y305_Y305C], the enrichment score is inactive: 2.72.

In the case of VIIVLYFSLWK [SLC6A2_Y249_V245I], the enrichment score is inactive: 0.893.

KPLMPYMRFSR [SMARCE1_Y73_YF]: the enrichment score was inactive: 0.222.

Take FSCLPYRRLAY [SLC52A2_Y305_G306R]: the enrichment score was inactive: 0.251.

Regarding RPSELYFSKIG [SMG1_Y2253_YF], the enrichment score was inactive: 1.02.

DFKIIYIVPMR [SNRNP200_Y540_A542V]: the enrichment score is inactive: 3.08.

Regarding KSEMSYIDGEK [SORBS1_Y485], the enrichment score was inactive: 0.628.

As for RPSELYFSKIS [SMG1_Y2253_G2258S_YF], the enrichment score is inactive: 0.962.

Turning to KSSDVYVSYDY [SORL1_Y136], the enrichment score was inactive: 0.631.

LTFHMYADPNI [SOS1_Y618_F623I_YF]: the enrichment score was inactive: 1.37.

KELSNYKHLTL [SLIT2_Y776]: the enrichment score was inactive: 0.602.

Consider QMRLKYSQSDL [SMC1A_Y714], for which the enrichment score is inactive: 0.752.

For DMLTLYVNTAA [SMCHD1_Y403_Q400L], the enrichment score was inactive: 1.63.

A further test concerns the target SHP2 N-SH2 domain L43F. The test is described as above. To be noted: peptide library: pTyr-Var.
Consider THEVRYVSAGQ [SLCO4A1_Y77], for which the enrichment score was inactive: 0.522.

As to FSCLPYGRLAF [SLC52A2_Y305_YF], the enrichment score was inactive: 1.5.

KPLMPSMRFSR [SMARCE1_Y73_Y73S_YF]: the enrichment score was inactive: 0.328.

For the molecule FSCLPCGRLAF [SLC52A2_Y305_Y305C_YF], the enrichment score was active: 4.13.

Turning to NKEAIYSGYIR [SMCHD1_Y283], the enrichment score was inactive: 0.684.

On to FSCLPCGRLAY [SLC52A2_Y305_Y305C], for which the enrichment score was inactive: 3.05.

Consider VIIVLYFSLWK [SLC6A2_Y249_V245I], for which the enrichment score was inactive: 0.764.

On to KPLMPYMRFSR [SMARCE1_Y73_YF], for which the enrichment score was inactive: 0.241.

Consider FSCLPYRRLAY [SLC52A2_Y305_G306R], for which the enrichment score was inactive: 0.316.

As to RPSELYFSKIG [SMG1_Y2253_YF], the enrichment score is inactive: 0.932.

Consider DFKIIYIVPMR [SNRNP200_Y540_A542V], for which the enrichment score is inactive: 3.05.

For the molecule KSEMSYIDGEK [SORBS1_Y485], the enrichment score is inactive: 0.532.

As to RPSELYFSKIS [SMG1_Y2253_G2258S_YF], the enrichment score was inactive: 1.04.

Turning to KSSDVYVSYDY [SORL1_Y136], the enrichment score was inactive: 0.709.

Take LTFHMYADPNI [SOS1_Y618_F623I_YF]: the enrichment score is inactive: 1.17.

Regarding KELSNYKHLTL [SLIT2_Y776], the enrichment score was inactive: 0.545.

Consider QMRLKYSQSDL [SMC1A_Y714], for which the enrichment score is inactive: 0.76.

On to DMLTLYVNTAA [SMCHD1_Y403_Q400L], for which the enrichment score is inactive: 1.4.

A further test has as its target SHP2 N-SH2 domain T42A. The description is as above. Particulars: peptide library: pTyr-Var.
With THEVRYVSAGQ [SLCO4A1_Y77], the enrichment score was inactive: 0.522.

Turning to FSCLPYGRLAF [SLC52A2_Y305_YF], the enrichment score is inactive: 1.29.

As to KPLMPSMRFSR [SMARCE1_Y73_Y73S_YF], the enrichment score was inactive: 0.332.

For the molecule FSCLPCGRLAF [SLC52A2_Y305_Y305C_YF], the enrichment score was inactive: 2.89.

On to NKEAIYSGYIR [SMCHD1_Y283], for which the enrichment score was inactive: 0.593.

As to FSCLPCGRLAY [SLC52A2_Y305_Y305C], the enrichment score is inactive: 2.87.

On to VIIVLYFSLWK [SLC6A2_Y249_V245I], for which the enrichment score was inactive: 0.954.

For KPLMPYMRFSR [SMARCE1_Y73_YF], the enrichment score is inactive: 0.194.

Regarding FSCLPYRRLAY [SLC52A2_Y305_G306R], the enrichment score was inactive: 0.26.

With RPSELYFSKIG [SMG1_Y2253_YF], the enrichment score was inactive: 0.813.

In the case of DFKIIYIVPMR [SNRNP200_Y540_A542V], the enrichment score is inactive: 2.94.

On to KSEMSYIDGEK [SORBS1_Y485], for which the enrichment score was inactive: 0.457.

Regarding RPSELYFSKIS [SMG1_Y2253_G2258S_YF], the enrichment score was inactive: 0.649.

Regarding KSSDVYVSYDY [SORL1_Y136], the enrichment score is inactive: 0.578.

Regarding LTFHMYADPNI [SOS1_Y618_F623I_YF], the enrichment score is inactive: 1.35.

For KELSNYKHLTL [SLIT2_Y776], the enrichment score is inactive: 0.621.

On to QMRLKYSQSDL [SMC1A_Y714], for which the enrichment score is inactive: 0.667.

Consider DMLTLYVNTAA [SMCHD1_Y403_Q400L], for which the enrichment score was inactive: 2.01.

Another test deals with SHP2 N-SH2 domain T52S. Described as above. Particulars: peptide library: pTyr-Var.
Regarding THEVRYVSAGQ [SLCO4A1_Y77], the enrichment score was inactive: 0.57.

FSCLPYGRLAF [SLC52A2_Y305_YF]: the enrichment score is inactive: 0.921.

In the case of KPLMPSMRFSR [SMARCE1_Y73_Y73S_YF], the enrichment score is inactive: 0.352.

For the molecule FSCLPCGRLAF [SLC52A2_Y305_Y305C_YF], the enrichment score is active: 3.32.

Turning to NKEAIYSGYIR [SMCHD1_Y283], the enrichment score is inactive: 0.822.

With FSCLPCGRLAY [SLC52A2_Y305_Y305C], the enrichment score is inactive: 2.86.

For the molecule VIIVLYFSLWK [SLC6A2_Y249_V245I], the enrichment score was inactive: 1.19.

In the case of KPLMPYMRFSR [SMARCE1_Y73_YF], the enrichment score was inactive: 0.305.

Take FSCLPYRRLAY [SLC52A2_Y305_G306R]: the enrichment score is inactive: 0.197.

Take RPSELYFSKIG [SMG1_Y2253_YF]: the enrichment score is inactive: 1.4.

As to DFKIIYIVPMR [SNRNP200_Y540_A542V], the enrichment score is active: 3.21.

Take KSEMSYIDGEK [SORBS1_Y485]: the enrichment score was inactive: 0.505.

As for RPSELYFSKIS [SMG1_Y2253_G2258S_YF], the enrichment score is inactive: 1.11.

As to KSSDVYVSYDY [SORL1_Y136], the enrichment score was inactive: 0.664.

Regarding LTFHMYADPNI [SOS1_Y618_F623I_YF], the enrichment score was inactive: 1.39.

Regarding KELSNYKHLTL [SLIT2_Y776], the enrichment score is inactive: 0.609.

Turning to QMRLKYSQSDL [SMC1A_Y714], the enrichment score was inactive: 0.593.

With DMLTLYVNTAA [SMCHD1_Y403_Q400L], the enrichment score was inactive: 1.46.

In the next test the target is SHP2 N-SH2 domain wild-type. Described as above. To be noted: peptide library: pTyr-Var.
For THEVRYVSAGQ [SLCO4A1_Y77], the enrichment score is inactive: 0.764.

In the case of FSCLPYGRLAF [SLC52A2_Y305_YF], the enrichment score was inactive: 0.813.

Consider KPLMPSMRFSR [SMARCE1_Y73_Y73S_YF], for which the enrichment score is inactive: 0.352.

As for FSCLPCGRLAF [SLC52A2_Y305_Y305C_YF], the enrichment score is inactive: 2.65.

Consider NKEAIYSGYIR [SMCHD1_Y283], for which the enrichment score is inactive: 0.887.

Consider FSCLPCGRLAY [SLC52A2_Y305_Y305C], for which the enrichment score was inactive: 2.38.

Turning to VIIVLYFSLWK [SLC6A2_Y249_V245I], the enrichment score is inactive: 0.605.

In the case of KPLMPYMRFSR [SMARCE1_Y73_YF], the enrichment score is inactive: 0.179.

Take FSCLPYRRLAY [SLC52A2_Y305_G306R]: the enrichment score is inactive: 0.279.

For RPSELYFSKIG [SMG1_Y2253_YF], the enrichment score was inactive: 0.955.

On to DFKIIYIVPMR [SNRNP200_Y540_A542V], for which the enrichment score was inactive: 2.72.

On to KSEMSYIDGEK [SORBS1_Y485], for which the enrichment score was inactive: 0.703.

For RPSELYFSKIS [SMG1_Y2253_G2258S_YF], the enrichment score is inactive: 0.905.

Consider KSSDVYVSYDY [SORL1_Y136], for which the enrichment score is inactive: 0.812.

As for LTFHMYADPNI [SOS1_Y618_F623I_YF], the enrichment score is inactive: 1.41.

On to KELSNYKHLTL [SLIT2_Y776], for which the enrichment score was inactive: 0.627.

Regarding QMRLKYSQSDL [SMC1A_Y714], the enrichment score was inactive: 0.595.

Take DMLTLYVNTAA [SMCHD1_Y403_Q400L]: the enrichment score is inactive: 1.63.
